# Source: PubChem BioAssay AID588342 (National Center for Advancing Translational Sciences (NCATS), 2011)
# The campaign covered roughly 360,000 compounds. About 25,000 (6.9%) were called active. Inconclusive results, whose numbers are uncertain, are shown with a selection of clear calls. Calls follow the shape of the dose curve; as a rule, active = well fitted inhibition curve with a large enough effect; inconclusive = small, poorly fitted or top-dose-only effect; inactive = flat fitted curve, though single readings scatter. Potencies of inconclusive entries are doubtful fits and often do not repeat.
# Molecular target: Luciferin 4-monooxygenase (Photinus pyralis) (UniProt P08659)
# Chain of UniProt P08659 (P08659 whole entry, looked up): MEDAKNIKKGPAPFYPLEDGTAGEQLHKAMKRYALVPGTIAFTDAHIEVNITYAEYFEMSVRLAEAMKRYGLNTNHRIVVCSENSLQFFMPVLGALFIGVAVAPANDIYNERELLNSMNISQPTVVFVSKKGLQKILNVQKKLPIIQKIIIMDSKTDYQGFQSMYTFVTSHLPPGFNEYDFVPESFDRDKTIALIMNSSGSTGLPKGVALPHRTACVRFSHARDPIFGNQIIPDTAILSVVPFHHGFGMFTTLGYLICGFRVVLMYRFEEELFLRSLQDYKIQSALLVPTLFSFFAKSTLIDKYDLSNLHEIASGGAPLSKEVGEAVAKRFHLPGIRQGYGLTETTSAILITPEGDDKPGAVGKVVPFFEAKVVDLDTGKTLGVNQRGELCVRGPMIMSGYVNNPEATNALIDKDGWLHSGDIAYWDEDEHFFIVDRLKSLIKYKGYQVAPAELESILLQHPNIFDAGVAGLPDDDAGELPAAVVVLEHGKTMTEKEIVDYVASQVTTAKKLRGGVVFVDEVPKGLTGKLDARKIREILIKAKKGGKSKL
# Assay: qHTS profiling assay for firefly luciferase inhibitor/activator using purifed enzyme and Km concentrations of substrates (counterscreen for miR-21 project); also: nearly all actives have a fitted effect of over 55% in size
# Details: purified FLuc, luminescence inhibition; series mostly up to 57.5 µM
# In short: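 Purified P. pyralis luciferase, 10 nM final, with Km-level 10 uM D-luciferin and 10 uM ATP in 50 mM Tris acetate pH 7.5, 10 mM Mg acetate, 0.01% Tween-20, 0.05% BSA; 6-point qHTS titration about 60 µM downward; luminescence read.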
# Potency is read from the fitted curve at half-maximal effect; tags tell the direction and shape of the fitted curve.
row,Compound,Potency
1,CSc1ccccc1-c1nnc(-c2ccccc2)o1,active: 3.38 µM
2,Cc1cccc(Nc2cc(C)nc3nc(Cc4ccc(Cl)cc4)nn23)c1,inactive
3,COc1ccc(CNC(=O)c2ccc3c(Cl)c4c(nc3c2)CCCC4)c(OC)c1,inactive
4,COc1ccc(C(=O)OCC(=O)c2cc(C)n(CC3CCCO3)c2C)cc1[N+](=O)[O-] (centres undefined),"inconclusive: 26.9 µM [inhibitor, partial curve]"
5,O=C(Nc1ccc2nsnc2c1)NC1CCCCC1,active: 6.75 µM
6,COc1ccccc1N(/N=C1\Sc2ccccc2C1=O)C(C)=O,active: 12 µM
7,Cc1ccc(C(=O)c2ccc(C)cc2)cc1,"inconclusive: 21.3 µM [inhibitor, single point]"
8,CC1CCC(NC(=O)c2ccc(NS(=O)(=O)c3ccc4[nH]c(=O)[nH]c4c3)cc2)CC1 (centres undefined),"inconclusive: 33.8 µM [inhibitor, single point]"
9,Cc1nc(SCC(=O)Nc2ccc(Cl)cc2C(F)(F)F)[nH]c(=O)c1Cc1ccccc1,"inconclusive: 4.78 µM [inhibitor, full curve]"
10,Cc1ccc(-c2csc(NC(=O)C3=NN(c4ccccc4)C(=O)CC3)n2)cc1,active: 8.49 µM
11,Cc1ccc(Cn2cc3c(n2)-c2c(oc(C(=O)Nc4ccc(F)cc4F)c2C)CC3)cc1,inactive
12,Brc1ccc(-c2nn[nH]n2)cc1,"inconclusive: 30.1 µM [inhibitor, single point]"
13,CCCOC(=O)c1ccc(NC(=O)Cc2cccs2)cc1,active: 19 µM
14,CN(/N=C/c1ccc([N+](=O)[O-])o1)c1ccccc1,"inconclusive: 30.1 µM [inhibitor, single point]"
15,COc1ccc(NC(=O)C(=O)c2cn(CC(=O)N3CCCC3)c3ccccc23)c(OC)c1,active: 4.78 µM
16,O=C(Nc1ccc(F)cc1)c1ccc2snnc2c1,"inconclusive: 30.1 µM [inhibitor, single point]"
17,O=C(NN=C1C2CC3CC(C2)CC1C3)c1cccs1,inactive
18,CCc1nn2c(=O)cc(COC(=O)c3cccs3)nc2s1,"inconclusive: 21.3 µM [inhibitor, single point]"
19,CC(C)(C)c1nnc(SCC(=O)Nc2ccc(N3CCCCC3)cc2)n1N,"inconclusive: 14.1 µM [inhibitor, partial curve, poor fit]"
20,Cc1cc(OCc2cn3cccnc3n2)ccc1Cl,active: 21.3 µM
21,O=C(Nc1ccc2nn(-c3ccccc3)nc2c1)c1ccc2c(c1)OCCO2,"inconclusive: 2.69 µM [inhibitor, full curve]"
22,COC(CNc1ncnc2sc(-c3ccccc3)cc12)OC,"inconclusive: 26.9 µM [inhibitor, partial curve, poor fit]"
23,COC(=O)c1ccc(CN(Cc2ccc(OC)c(OC)c2)S(=O)(=O)c2ccc(F)c(C(=O)Nc3cc(C)ccc3C)c2)cc1,inactive
24,N#Cc1ccc(C(=O)Nc2ccc3ccccc3c2)cc1,active: 1.35 µM
25,C=CCNc1nc(Cl)nc(Nc2cc(Cl)ccc2OC)n1,inactive
26,Cn1c(SCCN2CCOCC2)nc2sc3c(c2c1=O)CCCC3,"inconclusive: 19 µM [inhibitor, partial curve, poor fit]"
27,CCCc1ccc2oc(C(=O)NCc3nnc(C)o3)c(C)c2c1,active: 9.53 µM

row,Compound,Potency
1,CN1CCN(CC(=O)Nc2ccc(OC(F)(F)F)cc2)CC1,inactive
2,O=C(N/N=C/C=C\c1ccco1)c1ccccn1,"inconclusive: 23.9 µM [inhibitor, single point]"
3,CCOC(=O)Cc1ccc(NC(=O)c2ccccc2Br)cc1,active: 19 µM
4,CC(C)(C)c1ccc(/C=C/C(=O)N2CCc3ccccc3C2)cc1,"inconclusive: 26.9 µM [inhibitor, single point]"
5,O=C(CSc1n[nH]c(-c2ccc(S(=O)(=O)N3CCCCC3)cc2)n1)Nc1nccs1,"inconclusive: 26.9 µM [inhibitor, partial curve]"
6,Cc1ccc(-c2nnc(N(C)C(=O)c3cccnc3)s2)cn1,inactive
7,Cc1ccsc1-c1cc(C(=O)O)c2c(ccc3ccccc32)n1,active: 5.36 µM
8,O=C(CC1CC2CCC1C2)N1CCN(S(=O)(=O)c2ccccc2C(F)(F)F)CC1 (centres undefined),inactive
9,COc1ccc(NC(=O)CCSc2nc(C)cs2)cc1,"inconclusive: 21.3 µM [inhibitor, single point]"
10,CCOC(=O)c1[nH]c2ccccc2c1NC(=S)Nc1cccc(C)c1C,"inconclusive: 23.9 µM [inhibitor, single point]"
11,O=C(NC(=S)Nc1ccc(O)cc1)C1CCCC1,"inconclusive: 42.6 µM [inhibitor, partial curve, poor fit]"
12,O=C(O)/C=C\C(=O)Nc1ccc(Oc2ccccc2)cc1,"inconclusive: 26.9 µM [inhibitor, partial curve, poor fit]"
13,COc1ccccc1N1CCN(C(=O)CCCCCn2c(=O)[nH]c3ccsc3c2=O)CC1,inactive
14,COC(=O)/C=C1/S/C(=N/N=C/c2ccco2)NC1=O,"inconclusive: 21.3 µM [inhibitor, partial curve, poor fit]"
15,O=C(Nc1nnc(CCc2ccccc2)s1)c1ccccc1,"inconclusive: 19 µM [inhibitor, single point]"
16,COC(=O)c1ccc2c(=O)n(CCCCCC(=O)O)c(=S)[nH]c2c1,"inconclusive: 30.1 µM [inhibitor, single point]"
17,Nc1nnc(-c2cccc(F)c2)s1,inactive
18,CC(Oc1ccc([N+](=O)[O-])cc1)C(=O)NCC1CCCO1 (centres undefined),inactive
19,Cc1nn(Cc2ccc(Cl)cc2)c2sc(C(=O)O)cc12,"inconclusive: 26.9 µM [inhibitor, single point]"
20,CCN1CCN(Cc2ccc(OC)c(OCc3ccccc3)c2)CC1,inactive
21,Nn1c(SCc2cccc(Br)c2)nnc1-c1cccnc1,inactive
22,COc1cc(NC(=O)/C=C/c2ccccc2)c(C(=O)O)cc1OC,active: 6.01 µM
23,Cc1ccc(OCCSc2nc3ccccc3n2CC(=O)N2CCCCC2)c(C)c1,inactive
24,O=C(CC(Nc1ccccc1Cl)C(=O)O)c1ccccc1 (centres undefined),active: 4.78 µM
25,Cc1cccc(OCC(O)CN2CC3(C)CC2CC(C)(C)C3)c1 (centres undefined),inactive
26,CCN1CCN(c2ccc(NC(=O)c3ccc4c(c3)OCCO4)cc2C)CC1,active: 6.75 µM
27,O=C(NN=C1C2CC3CC(C2)CC1C3)c1ccccc1O,active: 16.9 µM

row,Compound,Potency
1,CCOC(=O)c1ccc2c(c1)[C@@H]1C=CC[C@@H]1[C@H](c1cccc(OC)c1OC)N2,"inconclusive: 13.5 µM [inhibitor, partial curve]"
2,Fc1ccc(SCCc2ccccn2)cc1,active: 16.9 µM
3,CCCC(=O)C1=C(c2cccc(OC)c2)N(C(=O)CCC)n2c(C)nnc2S1,inactive
4,CCOc1ccc(S(=O)(=O)NCCC(=O)NCC2(N3CCCCC3)CCCCC2)cc1,inactive
5,Cc1ccc(C(=O)N/N=C\c2ccncc2)s1,"inconclusive: 23.9 µM [inhibitor, single point]"
6,Nc1c(C(=O)Nc2ccc3c(c2)OCCO3)nnn1Cc1ccc(Br)cc1,"inconclusive: 1.9 µM [inhibitor, partial curve]"
7,O=C(O)CCSc1nc2ccccc2s1,active: 21.3 µM
8,O=C(CCC(=O)c1ccccc1)Nc1ccc(F)c(Cl)c1,inactive
9,COc1ccc(CCN2CC(C(=O)NCCc3ccccc3)CC2=O)cc1OC (centres undefined),"inconclusive: 30.1 µM [inhibitor, single point]"
10,CN(C)S(=O)(=O)c1cccc(C(=O)Nc2ccc(N3CCOCC3)cc2)c1,"inconclusive: 42.6 µM [inhibitor, partial curve, poor fit]"
11,O=C(CC1SC(N2CCCCC2)=NC1=O)Nc1ccc(C(=O)Nc2ccccc2)cc1 (centres undefined),"inconclusive: 21.3 µM [inhibitor, single point]"
12,CCN1CCN(Cc2ccc(NC(=O)c3cc(NC(=O)c4ccc5n[nH]nc5c4)cc(OC)c3)cc2C(F)(F)F)CC1,active: 2.69 µM
13,Cn1c(-c2ccccc2)cnc1N,"inconclusive: 30.1 µM [inhibitor, partial curve, poor fit]"
14,CCc1cccc(NS(=O)(=O)c2ccc3c(c2)N(C)CCO3)c1,inactive
15,Cc1ccc(NC(=O)CSc2nccn2C)cc1F,"inconclusive: 8.49 µM [inhibitor, partial curve, poor fit]"
16,COc1ccccc1-c1nnc2sc(COc3ccc(Cl)cc3Cl)nn12,"inconclusive: 21.3 µM [inhibitor, single point]"
17,Cc1ccccc1NC(=O)c1cccnc1,inactive
18,O=c1cc(-c2ccccc2)[nH]n1-c1ccc([N+](=O)[O-])cc1,active: 15.1 µM
19,COc1cccc(CNC(=O)CSC2=Nc3ccccc3C3=NC(C)C(=O)N23)c1OC (centres undefined),inactive
20,COc1ccnc(N=CNOCc2cccc(Cl)c2Cl)c1C#N,"inconclusive: 21.3 µM [inhibitor, partial curve, poor fit]"
21,O=c1cc(CSc2nc3ccccc3c(=O)[nH]2)c2ccc(O)cc2o1,"inconclusive: 37.9 µM [inhibitor, partial curve, poor fit]"
22,Cc1onc(-c2c(Cl)cccc2Cl)c1C(=O)N=C(N)N1CC(C)OC(C)C1 (centres undefined),inactive
23,NC(=O)c1ccccc1NC(=O)/C=C/c1ccccc1,active: 6.01 µM
24,COc1ccccc1N1C(=O)CC(Sc2n[nH]c(-c3cccc(C)c3)n2)C1=O (centres undefined),"inconclusive: 23.9 µM [inhibitor, partial curve, poor fit]"
25,CCCn1nc(NC(=O)c2cccs2)c2cc3ccccc3nc21,"inconclusive: 23.9 µM [inhibitor, partial curve]"
